According to PubChem BioAssay AID1240 (Sanford-Burnham Center for Chemical Genomics, 2008):
The whole screen tested about 50,000 compounds, of which about 800 (1.6%) showed an effect of 50% or more. The list shows a part of the results.

Each compound was assayed against Bcl-2-like protein 10 (Homo sapiens) (UniProt Q9HD36) (assay: Phenotype converters, Bcl-B/TR3 peptide binding displacement, primary biochemical FP (AID 1240;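 also: 0% = Bcl-B with tracer peptide and DMSO and 100% = tracer peptide lacking Bcl-B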)). Settings: GST-Bcl-B / FITC-TR3 peptide fluorescence polarization; stronger effect = higher value; compound at 3.75 mg/L.
Chain of UniProt Q9HD36 (Q9HD36 whole entry, looked up): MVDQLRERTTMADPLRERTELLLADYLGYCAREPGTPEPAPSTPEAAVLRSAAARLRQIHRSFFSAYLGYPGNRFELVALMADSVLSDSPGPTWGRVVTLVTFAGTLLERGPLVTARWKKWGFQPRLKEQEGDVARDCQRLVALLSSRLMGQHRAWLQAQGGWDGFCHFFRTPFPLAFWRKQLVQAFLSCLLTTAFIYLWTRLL

SMILES	displacement
CN(C)CCN1C(=O)C(=O)/C(=C(/O)c2ccccc2)C1c1ccccc1 (stereo not drawn)	-4%
Cc1cccc(Cl)c1NC(=O)C1CC(=O)N(c2ccc(Br)cc2)C1 (stereo not drawn)	10.9%
Cc1c(NC(=O)c2cc3n(n2)C(C(F)(F)F)CC(c2ccc(Cl)c(Cl)c2)N3)c(=O)n(-c2ccccc2)n1C (stereo not drawn)	10.5%
Cc1ccccc1NC(=O)c1cccc(N2C(=O)c3ccc(C(=O)O)cc3C2=O)c1	-13%
CC(C)COC(=O)c1ccc(NC(=O)COc2ccccc2Cl)cc1	-4.9%
O=C(CSc1ncn[nH]1)c1ccc(Br)cc1	8.5%
COc1ccc(C(=O)N2c3ccccc3C(N(C(C)=O)c3ccccc3)CC2C)cc1 (stereo not drawn)	0.4%
CCOc1c(Cl)cc(/C=C2\C(=O)NC(=O)N(C)C2=O)cc1Cl	-7.7%
CCN(CC)CCCCCCOc1ccc(OC)cc1	10%
CCOc1ccc(-c2cc(C)n3nc(C(=O)N4CCOCC4)cc3n2)cc1	0.5%
CCOc1cc(Br)cc(C=Nc2ccccc2Sc2c(C)n[nH]c2C)c1O	1.3%
CCOC(=O)C(CCC(=O)CC(C)C)C(C)=O (stereo not drawn)	-16%
CCOC(=O)c1ccc(-c2ccc(/C=C3/C(=O)NC(=O)N(c4ccc(OC)cc4)C3=O)o2)cc1	86.2%
C=CCON/C(CCC)=C1/C(=O)CC(C)(C)CC1=NC	-4.4%
CCCS(=O)(=O)C(=C(Nc1ccccc1)Nc1ccccc1)S(=O)(=O)CCC	15.2%
CCOC(=O)CCCSc1nc2sc3c(c2c(=O)[nH]1)CCCC3	2.2%
Cc1c(-c2ccccc2)nc2ccccc2c1C(=O)NCCCc1ccccc1	3.3%
COc1ccccc1N(CC(=O)Nc1ccccc1)S(=O)(=O)c1ccccc1	4.5%
CCOC(=O)c1ccc(N=Cc2cccc(OC)c2O)cc1	2.2%
Cc1cc(Br)ccc1NC(=O)c1ccccc1	8.3%
O=S(=O)(N/N=C/c1cccnc1)c1ccc(Br)cc1	0.3%
O=c1c2ccccc2nc(/C=C/c2c(O)ccc3ccccc23)n1-c1ccc(O)cc1	0.9%
Cc1n[nH]c(C)c1Sc1ccccc1N=Cc1cc(Br)ccc1O	6.6%

SMILES	displacement
Cc1ccc2cc(C)c(NCc3ccccn3)nc2c1	-2.3%
CCc1ccc(-n2c(C)cc(/C=N\NC(=O)c3ccco3)c2C)cc1	-3%
O=C1S/C(=C\c2ccccc2[N+](=O)[O-])C(=O)N1Cc1ccccc1	-9%
O=C(/C=C/c1ccccc1Cl)NCc1cccnc1	4.7%
O=c1[nH]c(-c2cc(Cl)ccc2O)nc2sc3c(c12)CCCC3	-11.4%
CCC(C(=O)Nc1cc(C(=O)OC)cc(C(=O)OC)c1)c1ccccc1 (stereo not drawn)	3%
COc1ccc(O)c(CN2CCN(Cc3ccccc3[N+](=O)[O-])CC2)c1	19.6%
O=C(/C=C/c1ccco1)/C=C/c1ccc(-c2ccc(Cl)c(Cl)c2)o1	-23%
Cc1ccc(-n2nc3ccc(NC(=S)NC(=O)c4ccccc4Cl)cc3n2)cc1Cl	14.7%
Cc1ccc(S(=O)(=O)NCCOc2ccccc2Cl)cc1[N+](=O)[O-]	13%
COc1ccccc1CC(=O)Nc1ccc(Br)cc1C(=O)O	-0.9%
O=C(O)CCCCCN1C(=O)C(=O)/C(=C(/O)c2ccc(F)cc2)C1c1ccccc1Cl (stereo not drawn)	-4.5%
N#C/C(=C/c1ccc(Sc2ccccc2)o1)C(=O)Nc1ccc(F)cc1	-1.7%
Cc1ccccc1C(=O)Nc1cccc(NC(=O)COc2ccc(Cl)cc2Cl)c1	-13.4%
C/C(=N\NC(=O)C1(C)CC1(Br)Br)c1ccncc1 (stereo not drawn)	-6.4%
O=C1ON=C(c2ccc(Cl)cc2)/C1=C/C=C/c1ccccc1	-18.8%
Cc1cc(C)n(-c2cc(N/N=C/c3cccc(F)c3)nc(C)n2)n1	-11.3%
O=C(NCc1ccccn1)C(=O)Nc1nccs1	-18%
O=C1N=c2ccccc2=C1c1s/c(=N\Nc2ccccc2)n(-c2ccccc2)c1O	-4.3%
COc1ccc(C(=O)NNC(=O)c2cccc(C)c2)c(OC)c1	3.3%
COc1ccccc1C(=O)Nc1cc(-c2nc3ncccc3o2)ccc1C	24%
CC(C)C(=O)Nc1ccc2c3c(cccc13)CC2	11.2%
CCCOC(=O)c1ccc(NC(=O)OC)cc1	-1.5%

SMILES	displacement
CCCC1CCc2c(sc(NC(=O)c3ccccc3F)c2C(N)=O)C1 (stereo not drawn)	2.6%
O=C1CC(Cc2ccc(Cl)cc2)C(=O)N1c1ccc(F)cc1 (stereo not drawn)	-10.1%
Cc1ccc(NC(=O)c2cccc(F)c2)cc1C	2.2%
COc1ccc(-c2nc(-c3ccccc3)c(-c3cc([N+](=O)[O-])ccc3C)[nH]2)c(OC)c1	11%
Brc1cccc(-c2nnc(-c3ccc4c(c3)OCO4)o2)c1	2%
Cc1ccc(C(=O)N2CCN(c3ccc([N+](=O)[O-])cc3)CC2C)cc1 (stereo not drawn)	7.8%
C=CCNC(=O)CN(Cc1ccccc1)S(=O)(=O)c1ccc(OC)cc1	-7.4%
Cc1[nH]n(-c2ccccc2)c(=O)c1C(c1ccc(OC(=O)c2ccccc2F)cc1)c1c(C)[nH]n(-c2ccccc2)c1=O	6.6%
COc1cccc(/C=C(\C#N)c2nc3ccc(C)cc3[nH]2)c1OCC(=O)O	1.6%
COC(=O)C1=C(C)N(C)C(C)=C(C(=O)OC)C1c1ccc(C)c([N+](=O)[O-])c1	-5.8%
O=C(COc1ccc(Br)cc1)Nc1nc2ccccc2s1	2.7%
COc1cc(/C=C2/SC(=S)N(CCC(=O)Nc3ccccc3C(F)(F)F)C2=O)cc(OC)c1OC	18%
COc1cc(NC(=O)c2cncc(Br)c2)c(OC)cc1Cl	14.9%
Nc1sc2c(c1C(=O)Nc1ccccc1Cl)CCC2	-5.4%
O=C(O)c1ccc(Br)c(S(=O)(=O)Nc2ccc(NC(=O)c3ccccc3)cc2)c1	3.9%
O=C1c2cccc3cccc(c23)C(=O)N1CCCN1CCCCC1	3.1%
O=C1/C(=c2\sc3nc4ccccc4n3c2=O)c2ccccc2N1Cc1ccccc1	-7.1%
CCOC(=O)C1=C(O)/C(=C/c2ccc(Cl)c(Cl)c2)SC1=Nc1ccc([N+](=O)[O-])cc1	-5.5%
O=C(O)CCCCCN1C(=O)C(=O)/C(=C(/O)c2ccc(F)cc2)C1c1ccccc1 (stereo not drawn)	-4.1%
CNC(=O)/C(=C\c1ccc(Cl)cc1)NC(=O)c1ccccc1	1.1%
CCN(CC)c1ccc(N2C(=O)/C(=C/C=C/c3ccccc3)SC2=S)cc1	-4.2%
O=C(NCCCN1CCOCC1)c1ccccc1Br	2.7%
